Here are results for one molecule from patent US20250179210A1, “ANTI-CEACAM5 ANTIBODIES AND CONJUGATES AND USES THEREOF” (Merck Patent GmbH, priority 2022, published 2025).

For this test, the system named is human pancreatic cell line derived xenograft model HPAF-II. Nature of the test: Pancreatic cell line derived xenograft model HPAF-II. Format: in vivo, mouse. The conditions noted are these: single i.v. treatment. The protocol:
5×10^6 HPAF-II cells were injected subcutaneously into the right flank of six to eight weeks old immunodeficient female mice (Hsd:Athymic Nude-Foxn1nu, Envigo). […] Tumor length (L) and width (W) were measured with calipers and tumor volumes were calculated using L×(W^2)/2.
Efficacy of ADC1-M and ADC3-M in comparison to ADC8 was evaluated in the human pancreatic adenocarcinoma, cell line-derived xenograft model HPAF-II (ATCC, CRL-1997). Six to eight weeks old immunodeficient female mice (Hsd:Athymic Nude-Foxn1nu, Envigo) were injected subcutaneously in the right flank with 5×10^6 HPAF-II cells. When tumors reached a mean volume of 150 mm^3, 10 mice/group were treated once intravenously with ADC1-M (1 mg/kg or 6 mg/kg) or with ADC3-M (1 mg/kg or 6 mg/kg) or with ADC8 (1 mg/kg or 6 mg/kg). Tumor length (L) and width (W) were measured with calipers and tumor volumes were calculated using L×W^2/2.

B1: ADC8 (conjugate)
heavy: DIQLTQSPSSLSASVGDRVTITCKASQDVGTSVAWYQQKPGKAPKLLIYWTSTRHTGVPSRFSGSGSGTDFTFTISSLQPEDIATYYCQQYSLYRSFGQGTKVEIKRTVAAPSVFIFPPSDEQLKSGTASVVCLLNNFYPREAKVQWKVDNALQSGNSQESVTEQDSKDSTYSLSSTLTLSKADYEKHKVYACEVTHQGLSSPVTKSFNRGECEVQLVESGGGVVQPGRSLRLSCSASGFDFTTYWMSWVRQAPGKGLEWIGEIHPDSSTINYAPSLKDRFTISRDNAKNTLFLQMDSLRPEDTGVYFCASLYFGFPWFAYWGQGTPVTVSSASTKGPSVFPLAPSSKSTSGGTAALGCLVKDYFPEPVTVSWNSGALTSGVHTFPAVLQSSGLYSLSSVVTVPSSSLGTQTYICNVNHKPSNTKVDKRV[letters of human IgG1 Fc left out]
light: DIQLTQSPSSLSASVGDRVTITCKASQDVGTSVAWYQQKPGKAPKLLIYWTSTRHTGVPSRFSGSGSGTDFTFTISSLQPEDIATYYCQQYSLYRSFGQGTKVEIKRTVAAPSVFIFPPSDEQLKSGTASVVCLLNNFYPREAKVQWKVDNALQSGNSQESVTEQDSKDSTYSLSSTLTLSKADYEKHKVYACEVTHQGLSSPVTKSFNRGEC
As to B1, the anti-tumor effect result (1 mg/kg) is listed as “no significant anti-tumor effect” and the anti-tumor effect entry (6 mg/kg) is “no significant anti-tumor effect”.
